Measured values taken from PMC4336329 (PLoS ONE, 2015).
The whole screen tested about 310,000 compounds, of which about 14,000 (4.5%) showed an effect of 50% or more. The effect is printed as a negative number. The list shows a part of the results.

Target: human ether-à-go-go-related gene (hERG) potassium channel (human, UniProt Q12809)
Assay: primary screen, population patch clamp on CHO cells stably expressing hERG
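Also: peak tail current of the secondary pulse compared with the same well before compound.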

Sequence of human ether-à-go-go-related gene (hERG) potassium channel (Q12809 whole entry, looked up): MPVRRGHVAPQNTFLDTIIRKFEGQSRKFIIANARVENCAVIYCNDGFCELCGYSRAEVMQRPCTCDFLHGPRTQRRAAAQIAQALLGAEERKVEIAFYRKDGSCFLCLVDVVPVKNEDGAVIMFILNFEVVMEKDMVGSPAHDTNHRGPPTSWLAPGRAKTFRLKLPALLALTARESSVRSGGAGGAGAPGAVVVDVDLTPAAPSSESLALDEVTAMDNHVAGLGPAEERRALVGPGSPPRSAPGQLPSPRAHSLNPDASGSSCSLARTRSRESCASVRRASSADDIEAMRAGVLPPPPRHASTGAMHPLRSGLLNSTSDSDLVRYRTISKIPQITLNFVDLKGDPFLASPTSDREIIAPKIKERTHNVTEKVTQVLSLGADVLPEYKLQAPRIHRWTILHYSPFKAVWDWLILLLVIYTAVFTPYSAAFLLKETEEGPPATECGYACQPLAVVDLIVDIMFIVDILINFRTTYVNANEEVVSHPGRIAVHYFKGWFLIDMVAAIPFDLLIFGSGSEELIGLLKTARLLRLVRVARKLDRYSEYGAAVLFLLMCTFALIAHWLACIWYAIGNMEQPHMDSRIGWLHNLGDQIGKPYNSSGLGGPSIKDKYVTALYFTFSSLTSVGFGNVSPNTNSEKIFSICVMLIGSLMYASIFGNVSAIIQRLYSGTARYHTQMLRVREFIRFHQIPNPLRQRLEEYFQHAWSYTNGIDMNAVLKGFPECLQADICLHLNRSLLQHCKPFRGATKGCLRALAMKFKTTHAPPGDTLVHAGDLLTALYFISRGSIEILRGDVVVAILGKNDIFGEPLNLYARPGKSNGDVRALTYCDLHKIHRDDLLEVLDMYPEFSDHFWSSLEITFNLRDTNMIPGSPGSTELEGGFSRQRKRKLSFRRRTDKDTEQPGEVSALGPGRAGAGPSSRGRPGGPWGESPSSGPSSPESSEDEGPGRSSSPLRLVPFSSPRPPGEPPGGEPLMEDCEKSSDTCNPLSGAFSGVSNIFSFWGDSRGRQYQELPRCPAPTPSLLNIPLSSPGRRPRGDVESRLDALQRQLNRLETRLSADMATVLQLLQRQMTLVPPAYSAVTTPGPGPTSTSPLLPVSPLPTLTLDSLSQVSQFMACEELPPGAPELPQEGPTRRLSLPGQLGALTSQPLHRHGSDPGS

Compound	hERG current change (%, negative = inhibition) at 10uM [%]
O=C(CSc1cccc[n+]1[O-])Nc1ccc([N+](=O)[O-])cc1Cl	8.81
O=C(NCC(=O)N1CCN(c2ncc(C(F)(F)F)cc2Cl)CC1)c1ccc(Br)o1	-50.6
Cn1c(OCc2cccnc2)nc2c1c(=O)n(Cc1ccccc1)c(=O)n2C	-56.1
Cc1ccc(NS(=O)(=O)c2ccc(-n3cccn3)cc2)nc1	17.4
COc1cc(/C=C(/C#N)C(=O)NCCc2c[nH]c3ccccc23)ccc1OCc1ccccc1F	7.65
Cc1nn(-c2ccccc2)c(C)c1NC(=O)COC(=O)c1ccc(S(=O)(=O)C(F)F)cc1	-8.81
c1ccc(OCCOCCN2CCOCC2)cc1	10.4
C=CCNC(=O)C1CCCN(S(=O)(=O)c2ccc(-n3cnnn3)cc2)C1 (stereo not shown)	-27.5
CCOC(=O)C1=C(C)N=C2SC(C)C(=O)N2C1c1ccccc1 (stereo not shown)	-11.4
COc1ccc(NC(=O)c2cc3ccccc3cc2OC)cc1	-1.84
CCCNC(=S)N1CCN(C(c2ccccc2)c2ccccc2)CC1	6.18
Cc1cccc(/C=C2\Oc3cc(OS(C)(=O)=O)ccc3C2=O)c1	5.7
CCCNC(=O)N1CCC(c2ccc3c(c2)OCO3)CC1	-1.99
C/C=C/c1ccc(OCCCCN(C)Cc2ccccc2)c(OC)c1.O=C(O)C(=O)O	-79.4
CSc1ccc(-c2c(C#N)c(N)nc3c2CCCC3)cc1	2.5
COc1cccc(CN2C(=O)C3(C(C#N)=C(N)OC4=C3C(=O)CCC4)c3ccccc32)c1 (stereo not shown)	-3.52
CC1=C(C(=O)Nc2ccc(F)cc2)C(c2cccc(C)c2)n2nc(CCCO)nc2N1 (stereo not shown)	11.4
CCc1ccc(C(=O)C(C)OC(=O)c2nn(C)c(=O)c3ccccc23)cc1 (stereo not shown)	-9.08
COc1cccc(NC(=S)NC(=O)c2c(Cl)c(C)nn2C)c1	-4.74
Cc1cc(C)nc(SCC(=O)Nc2ccc(Br)cn2)n1	-5.2
Cc1cc(NC(=O)CCSc2ccc(Cl)cc2)no1	1.11
O=C(NCC1CCCCC1)C1(CC2CC(c3ccc(Cl)cc3)=NO2)CCNCC1 (stereo not shown)	-71.6

Compound	hERG current change (%, negative = inhibition) at 10uM [%]
Cc1cnn(C2CCN(C)CC2)c1N	11.2
COc1ccc(N2C(=O)CC(Nc3ccc(C)cc3)C2=O)cc1 (stereo not shown)	-6.7
CC(C)[C@H](NC(=O)CCn1nnc2ccccc2c1=O)C(=O)O	22
CCOC(=O)c1cc(C#N)c(N2CCCNCC2)nc1C(F)(F)F	-25.8
C=CCNC(=O)/C(C#N)=C/c1c(N2CCN(c3ccccc3)CC2)nc2c(C)cccn2c1=O	-15.9
CN(C)c1nnnn1-c1ccc(Cl)cc1Cl	0.276
Cc1ccc(NC(=O)CSc2nn3c(=O)c(C)nnc3s2)cc1Cl	-0.177
COc1ccccc1OCCOc1ccc(/C=C2\C(=N)N3N=C(C)SC3=NC2=O)cc1	14.4
CCCOc1cccc(NC(=O)OC2CCN(C)CC2)c1.O=C(O)/C=C/C(=O)O	-15.7
O=C(NCCCN1CCCC1=O)c1ccccc1NS(=O)(=O)c1ccc(F)cc1	-5.95
Fc1cc(F)cc(NC(=S)N2CCC(c3ccccc3)C2)c1 (stereo not shown)	12.2
Cc1ccc(Nc2nnc(SCC(=O)Nc3cccnc3Cl)s2)cc1C	0.963
CNc1nc(SCC(=O)Nc2ccc(Cl)c(Cl)c2)nc(N2CCOCC2)n1	1.02
O=C1c2ccccc2S(=O)(=O)c2cc(N3CCC4(CC3)OCCO4)ccc21	1.66
CC(NC(=O)c1ccc(OC2CCN(S(=O)(=O)N(C)C)CC2)cc1)C1CC1 (stereo not shown)	-10.4
Cc1ccc(N(CC(=O)NC2CCCCC2)S(=O)(=O)c2c(C)nn(C)c2C)cc1	-12.7
Cn1c(SCC(=O)NC2CCCCC2)nnc1-c1cccnc1	7.47
CC(=O)Nc1ccc(NC(=O)C(C)O/N=C/c2cccc([N+](=O)[O-])c2)cc1 (stereo not shown)	-20.3
Cc1onc(-c2c(F)cccc2Cl)c1-c1nnc(-c2cccc3ccccc23)o1	8.62
COc1cc(NC(=O)c2cccs2)c(C(=O)OCC(=O)c2cc(C)n(-c3ccccc3)c2C)cc1OC	11.8
Cc1ccc(S(=O)(=O)Nc2cc3c(cc2C#N)OCO3)cc1C(N)=O	17.1
CCCc1cc(=O)[nH]c2nnc(SCC(=O)Nc3ccc(C(C)=O)cc3)n12	-6.09

Compound	hERG current change (%, negative = inhibition) at 10uM [%]
Cc1ccc(C)c(OCC(O)CN2CCC(Cc3ccccc3)CC2)c1.Cl (stereo not shown)	-67.6
Cc1nn(C(=O)CCC(=O)NCCc2ccccc2)c2ccccc12	27.2
COc1ccccc1NC(=O)C1CCN(C(=O)c2ccc(C(C)(C)C)cc2)CC1	-37.8
CCCc1cc(=O)n2[nH]c(SCc3ccc(Cl)cc3)nc2n1	19.2
Cc1cccc(S(=O)(=O)Nc2nc3ccccc3nc2Nc2cccc(C(=O)O)c2)c1	15.9
C/C(CC(C)C)=N/Nc1ccc([N+](=O)[O-])cc1[N+](=O)[O-]	-17
COc1ccc(C2=NOC(C(=O)NCc3cccs3)C2)cc1 (stereo not shown)	11.1
COc1ccccc1CNC(=O)Cn1cnnn1	14.5
O=C(NCc1nnc(SCC(=O)N2CCCC2)o1)c1c(F)cccc1Cl	23.7
CCn1c(C)nc2cc(S(=O)(=O)C(F)F)ccc21	-13.7
O=C1C(Cl)=C(NC(=O)c2ccccc2)C(=O)C(Cl)=C1NC(=O)c1ccccc1	17.7
C=CCn1c(Oc2cccc(C)c2)nc2c1c(=O)n(C)c(=O)n2C	-4.46
O=C(Cc1ccccc1)Nc1ccc(C(=O)Nc2ccccc2C(=O)O)cc1	12.7
Cc1cccc(C)c1NC(=O)CNC(=O)c1c(-c2ccccc2)noc1C	11.1
CCNC(=S)NCCN1CCCCC1.Cl	18.8
NC(=O)N/N=C/c1cn(-c2ccccc2)nc1-c1cccs1	-38.8
O=C(Nc1ccccc1)c1ccc2snnc2c1	10.3
N#Cc1ccccc1Cn1cc(/C=C/[N+](=O)[O-])c2ccccc21	-2.44
N#CC(CO)(Cc1ccc(OC(F)F)cc1)c1nc2ccccc2[nH]1 (stereo not shown)	-52
O=C(CSc1nnnn1-c1ccc(F)cc1)NC1CCCCC1	10.2
COc1ccc(C(=O)c2ccccc2)c(OCC(=O)N(C)C)c1	8.31
COc1ccc(C)cc1S(=O)(=O)N(CC(=O)Nc1cccc([N+](=O)[O-])c1)c1ccc(C)cc1	-2.47

Compound	hERG current change (%, negative = inhibition) at 10uM [%]
Cn1c(C(=O)OC(C(=O)NC2CCCCC2)c2cccnc2)cc2sccc21 (stereo not shown)	-25
CC(C)NC(=O)NC(=O)CSc1nnc(COc2ccccc2F)n1C(C)C1CC2CCC1C2 (stereo not shown)	-3.12
Cn1c(=O)c2c(nc(NN=C3CCCCC3)n2C)n(C)c1=O	19.1
CCCCNC(=O)C1CCN(S(=O)(=O)N2CCOCC2)CC1	5.58
CN(C)C(=C(C#N)C#N)N1CCN(c2ccc(Cl)cc2)CC1	-48.3
CSc1cccc(CN2CCCC(CNC(=O)c3ccc(F)cc3)C2)c1 (stereo not shown)	-74.1
COC(=O)c1ccc(NC(=O)CSc2nncc3ccc(OC)c(OC)c23)cc1	-12.5
COc1ccc(OC)c(NC(=O)c2ccc(NC(C)=O)cc2)c1	4.18
c1ccc(Oc2nc(-c3cccnc3)nc3ccccc23)cc1	2.26
CCCCn1c(=O)[nH]c(=O)c2c1nc(CN1C(=O)c3ccccc3S1(=O)=O)n2CCC	-32.2
CCn1cnc2cc(NCc3cccc(OC)c3O)ccc21	-5.91
Cc1cc(Cl)c2oc(C(=O)N(C)C(C)c3ccccn3)c(C)c2c1 (stereo not shown)	-10.5
CSc1cccc(CNC(=O)C2CCC(=O)N(Cc3cccc(C(F)(F)F)c3)C2)c1 (stereo not shown)	-21
COC(=O)C1=C(c2cccc(Cl)c2)C[C@@H]2CC[C@H]1N2C(=O)N1CCCC1	-11.2
CCCCCN(C(=O)NC(=O)Nc1nncs1)S(C)(=O)=O	9.21
O=C(c1cccnc1)N1CCN(C(=O)c2ccccc2F)CC1	-12.9
COc1ccccc1OCCCn1c(C)c(C#N)c2ccccc21	-2.85
Cc1cc2c(cc1S(=O)(=O)N1CCOCC1)NC(=O)CO2	22
CC(=O)Nc1ccc(S(=O)(=O)C(C#N)c2nc3ccccc3nc2NCCN2CCOCC2)cc1 (stereo not shown)	5.33
Cc1ccccc1NC(=O)CSCC(=O)Nc1ccccc1C	-9.46
Cc1ccc(N2C(=O)C3C(C2=O)C(C(=O)c2ccc(Cl)cc2)N2CCCC32)cc1 (stereo not shown)	2.31
COc1cc(/C=N/NC(=O)c2ccc(CN(C)S(=O)(=O)c3ccc(C)cc3)cc2)ccc1O	5.98
